Experimental data reported in publication PMC4336329 (PLoS ONE, 2015).
Screen size: about 310,000 compounds; about 14,000 (4.5%) showed an effect of 50% or more. Effects have a minus sign here. This is one part of the list.

Biological target: human ether-à-go-go-related gene (hERG) potassium channel (human, UniProt Q12809)
Assay: primary screen, population patch clamp on CHO cells stably expressing hERG
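Further: peak tail current of the secondary pulse compared with the same well before compound.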

Chain of human ether-à-go-go-related gene (hERG) potassium channel (Q12809 whole entry, looked up): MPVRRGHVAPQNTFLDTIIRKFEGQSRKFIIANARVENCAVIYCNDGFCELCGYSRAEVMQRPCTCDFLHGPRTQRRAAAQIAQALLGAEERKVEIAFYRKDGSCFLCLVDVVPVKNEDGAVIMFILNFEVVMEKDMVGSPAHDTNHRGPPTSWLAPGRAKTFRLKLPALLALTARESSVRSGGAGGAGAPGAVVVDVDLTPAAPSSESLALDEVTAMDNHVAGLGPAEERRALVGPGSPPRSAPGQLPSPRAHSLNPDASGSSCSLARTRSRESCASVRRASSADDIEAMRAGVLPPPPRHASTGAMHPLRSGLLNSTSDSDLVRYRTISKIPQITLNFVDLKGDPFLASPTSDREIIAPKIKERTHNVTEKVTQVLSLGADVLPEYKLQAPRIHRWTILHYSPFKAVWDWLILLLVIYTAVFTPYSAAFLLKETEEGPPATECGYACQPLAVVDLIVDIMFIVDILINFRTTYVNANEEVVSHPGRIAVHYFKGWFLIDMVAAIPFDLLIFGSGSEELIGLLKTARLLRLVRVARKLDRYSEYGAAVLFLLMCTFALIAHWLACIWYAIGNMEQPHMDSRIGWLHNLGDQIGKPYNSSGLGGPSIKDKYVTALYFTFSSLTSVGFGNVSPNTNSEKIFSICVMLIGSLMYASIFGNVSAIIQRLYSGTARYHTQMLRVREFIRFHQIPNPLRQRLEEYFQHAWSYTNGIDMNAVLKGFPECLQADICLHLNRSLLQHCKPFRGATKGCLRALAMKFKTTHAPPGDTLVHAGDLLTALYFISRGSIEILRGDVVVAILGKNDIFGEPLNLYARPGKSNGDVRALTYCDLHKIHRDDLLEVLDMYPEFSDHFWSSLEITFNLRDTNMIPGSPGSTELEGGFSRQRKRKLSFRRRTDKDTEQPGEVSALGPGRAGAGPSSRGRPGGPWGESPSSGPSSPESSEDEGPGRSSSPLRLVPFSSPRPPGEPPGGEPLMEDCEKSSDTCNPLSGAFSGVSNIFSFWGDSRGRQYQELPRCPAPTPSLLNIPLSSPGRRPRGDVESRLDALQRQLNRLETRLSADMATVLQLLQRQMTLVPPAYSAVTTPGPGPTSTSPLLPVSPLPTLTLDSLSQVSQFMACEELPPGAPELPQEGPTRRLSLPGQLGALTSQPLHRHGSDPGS

Going from `CC(=O)c1cccc(NC(=O)C2C3C=CC(C4CC34)C2C(=O)O)c1` (stereo not drawn) to `O=C(CN1C(=O)C2C3C=CC(C3)C2C1=O)OCC(=O)c1ccccc1` (stereo not drawn), the “hERG current change (%, negative = inhibition) at 10uM” value rises from -4.93% to 7.44%.

Compared with `CCOC(=O)N1CCN(C(=O)CSc2nnc(-c3cccc(OC)c3)o2)CC1`, `CCOC(=O)N1CCN(S(=O)(=O)N2CCCC(C(=O)NCCc3ccc(OC)c(OC)c3)C2)CC1` (stereo not drawn) is higher in “hERG current change (%, negative = inhibition) at 10uM” value: -10.2% for the first, 4.82% for the second.

Compared with `Cc1cc(C(F)(F)F)n2ncc(-c3ccccc3)c2n1`, `CCn1nc(NC(=O)c2cccnc2)c2cc3ccccc3nc21` is lower in “hERG current change (%, negative = inhibition) at 10uM” value: 15% for the first, -0.677% for the second.

First: COC(=O)N/N=C/c1cc(N=Nc2ccccc2Cl)ccc1O
Second: COc1cc(NC(=O)c2oc3ccccc3c2C)ccc1NC(=O)c1ccco1
The “hERG current change (%, negative = inhibition) at 10uM” value of the first is higher: 11.5% for the first, 9.89% for the second.

First: CCOc1ccc(NC(=O)CSc2nc(=O)n(CCN3CCOCC3)c3c2CCCC3)cc1
Second: CC(=O)c1ccc(NC(=O)c2sc3nc(N4CCOCC4)c4c(c3c2N)CCCC4)cc1
The “hERG current change (%, negative = inhibition) at 10uM” value of the first is lower: -28.1% for the first, 11.1% for the second.

First: Cn1c(/C=C/c2ccc([N+](=O)[O-])o2)nc2ccccc2c1=O
Second: COc1ccccc1C(=O)Nn1c(C)nc2ccccc2c1=O
The “hERG current change (%, negative = inhibition) at 10uM” value of the first is lower: -24.2% for the first, 11.6% for the second.

First: O=C1CN(C(=O)CSc2nncs2)c2ccccc2N1
Second: CCN(CC)S(=O)(=O)c1ccc(-c2nnc(SCC(=O)N3CCc4ccccc43)o2)cc1
The “hERG current change (%, negative = inhibition) at 10uM” value of the first is higher: 14.2% for the first, 5.66% for the second.

Going from `N#CC1=C(N)SC2(CCCCC2)SC1c1ccccc1` (stereo not drawn) to `CCC(=O)Nc1c(C#N)c2nc3ccccc3nc2n1C1CCCCC1`, the “hERG current change (%, negative = inhibition) at 10uM” value rises from 13.3% to 16.5%.

Compared with `CNc1nc2ccccc2n(C)c1=O`, `Cc1nc(NC(=O)CN2CCOCC2)sc1-c1ccccc1` is lower in “hERG current change (%, negative = inhibition) at 10uM” value: 3.11% for the first, -8.02% for the second.

First: O=C(/C=C/c1ccccc1)N1CCN(Cc2nc3ccccc3c(=O)[nH]2)CC1
Second: O=C(CN1CCN(C(=O)c2ccc(-c3nc4ccccc4s3)o2)CC1)Nc1ccc(F)cc1
The “hERG current change (%, negative = inhibition) at 10uM” value of the first is higher: -64.7% for the first, -72.3% for the second.

Compared with `COC(=O)C1C(O)=C(C=NC2CCCCC2)C(=O)CC1(C)C` (stereo not drawn), `O=C(CNC(=O)C1CCCCC1)NNC(=O)c1ccc(Cl)cc1Cl` is higher in “hERG current change (%, negative = inhibition) at 10uM” value: 4.69% for the first, 12.7% for the second.

Going from `COc1ccc(OC)c(S(=O)(=O)N2CCCC(C)C2)c1` (stereo not drawn) to `Cc1ccc(S(=O)(=O)N2CCCC(C(=O)NCc3ccc4c(c3)OCO4)C2)cc1` (stereo not drawn), the “hERG current change (%, negative = inhibition) at 10uM” value rises from -20.9% to 0.729%.

First: COc1ccc2c(c1)OC/C(=C/c1cccs1)C2=O
Second: COc1ccc(-c2cc3ccc(OCC(C)=O)cc3oc2=O)cc1
The “hERG current change (%, negative = inhibition) at 10uM” value of the first is lower: -0.592% for the first, 23.4% for the second.

Going from `O=C(CCn1c(=O)c2ccccc2n(CC(=O)NC2CCCC2)c1=O)NCc1ccco1` to `O=C(COC(=O)COc1ccccc1[N+](=O)[O-])NC1CCCC1`, the “hERG current change (%, negative = inhibition) at 10uM” value rises from -1.49% to 4.16%.

Going from `Cc1ccc(-n2c(SCC(=O)c3c(N)n(C)c(=O)n(C)c3=O)nc3sc4c(c3c2=O)CCCC4)c(C)c1` to `C=CCn1c(=O)c2c(nc3n2CC(C)CN3CCc2ccccc2)n(C)c1=O` (stereo not drawn), the “hERG current change (%, negative = inhibition) at 10uM” value falls from 1.12% to -72%.

First: Cc1cccc(Nc2nc(N)nc(CN3CCC(C(N)=O)CC3)n2)c1C
Second: Cc1cc(C)c2cc(C(c3nnnn3C3CCCC3)N3CCOCC3)c(=O)[nH]c2c1 (stereo not drawn)
The “hERG current change (%, negative = inhibition) at 10uM” value of the first is higher: 17.5% for the first, -4.09% for the second.

First: Cc1ccc(NC(=S)NC(=O)c2cncc(Br)c2)c(C)c1
Second: Cc1ccc(C)c(NC(=S)NCc2cccn2C)c1
The “hERG current change (%, negative = inhibition) at 10uM” value of the first is higher: 17% for the first, -8.27% for the second.

Compared with `CSc1ccc(CCNC(=O)CCc2nnc3ccc(N4CCCCC4)nn23)cc1`, `O=C(NCCN1CCCC1=O)C1CCC(=O)N(CCc2ccc(Cl)cc2)C1` (stereo not drawn) is higher in “hERG current change (%, negative = inhibition) at 10uM” value: -32.6% for the first, -4.65% for the second.

Compared with `[O-]C1=N/[N+](=C/c2ccc(Cl)cc2)CC1`, `CS(=O)(=O)c1ccc2nc(NC(=O)c3ccc(Cl)cc3)sc2c1` is higher in “hERG current change (%, negative = inhibition) at 10uM” value: 1.97% for the first, 6.42% for the second.

Compared with `COC(=O)c1c(NC(=S)NN2CCOCC2)sc2c1CCCC2`, `COC(=O)c1ccc(N2CCN(C)CC2)c(NC(=O)c2cccs2)c1` is lower in “hERG current change (%, negative = inhibition) at 10uM” value: 8.03% for the first, -8.75% for the second.

First: Cc1nc(SCC(=O)Nc2ccc(F)cc2)c(C#N)c(C)c1CC(=O)c1ccc(Br)cc1
Second: Oc1ccc(CNc2ccc(F)cc2)c2cccnc12
The “hERG current change (%, negative = inhibition) at 10uM” value of the first is lower: 5.99% for the first, 12% for the second.

Compared with `O=C(CNS(=O)(=O)c1ccccc1)OCC(=O)c1ccccc1Cl`, `O=C(O)c1cccnc1SCCc1ccccc1` is lower in “hERG current change (%, negative = inhibition) at 10uM” value: 3.78% for the first, -4.45% for the second.

Going from `O=C(COc1ccc2oc3c(c2c1)CCCC3)Nc1ccccn1` to `COc1ccc(C(CNC(=O)COc2c(C)cc(C)cc2C)N2CCOCC2)cc1` (stereo not drawn), the “hERG current change (%, negative = inhibition) at 10uM” value falls from 11.8% to -12.1%.

Going from `COC(=O)c1cccc(NC(=O)Cc2nc(-c3ccccc3)sc2-c2ccc(C)cc2)c1` to `Cc1cc(Oc2ccc3ccccc3c2)nc(SCC(=O)c2ccccc2)n1`, the “hERG current change (%, negative = inhibition) at 10uM” value rises from 6.76% to 13.1%.

First: CCOC(=O)CSc1nc(C)cc(=O)[nH]1
Second: Cc1nc(SCC(N)=O)[nH]c(=O)c1CCC(C)C
The “hERG current change (%, negative = inhibition) at 10uM” value of the first is higher: 14.3% for the first, 3.92% for the second.

Going from `COc1ccc(NC(=O)Cn2c3ccccc3c3nc4n(c(=O)c32)CCS4)cc1OC` to `COc1ccccc1CNC(=O)CCCc1nnc2n(C)c(=O)c3sccc3n12`, the “hERG current change (%, negative = inhibition) at 10uM” value falls from 14.8% to -28.4%.

Going from `CC(C)(C)C(=O)NNC(=O)COc1ccc2ccccc2c1Br` to `COc1ccccc1NC(=O)C(=O)N(c1cccnc1)C(C(=O)NC(C)(C)C)c1ccccc1` (stereo not drawn), the “hERG current change (%, negative = inhibition) at 10uM” value rises from 3.81% to 18.7%.

First: CN(C)c1ccc(C(=S)N2CCN(C(=S)Nc3ccccc3)CC2)cc1
Second: CCOC(=O)C1CCCN(C(=O)COc2ccc(N(C)S(=O)(=O)c3ccc(F)cc3)cc2)C1 (stereo not drawn)
The “hERG current change (%, negative = inhibition) at 10uM” value of the first is higher: 5.41% for the first, -66.5% for the second.

First: Cc1ccc(CSc2nnnn2C)cc1
Second: COc1ccc(CN2C(=O)CC(=O)NC2=S)cc1
The “hERG current change (%, negative = inhibition) at 10uM” value of the first is lower: 6.66% for the first, 18.3% for the second.

Compared with `COc1ccc(N2CCN(C(=O)C3CCN(S(=O)(=O)c4ccc(F)cc4)CC3)CC2)cc1`, `CCn1c(=O)cc(SCC(=O)NCCCN2CCN(c3ccc(F)cc3)CC2)c2ccccc21` is higher in “hERG current change (%, negative = inhibition) at 10uM” value: -48.3% for the first, -46% for the second.

Going from `CCOc1ccc(C(=O)C(C)OC(=O)c2nc(Cl)ccc2Cl)cc1` (stereo not drawn) to `CCN(C(=O)c1ccc2c(OC)n(CC)nc2c1)c1ccc(OC)cc1`, the “hERG current change (%, negative = inhibition) at 10uM” value rises from -25.8% to -1.34%.

Going from `CC(=O)C1=C(O)C(=O)N(c2ccc(O)cc2)C1c1ccccc1[N+](=O)[O-]` (stereo not drawn) to `NS(=O)(=O)c1ccc(CCNC(=O)c2cc3ccccc3oc2=O)cc1`, the “hERG current change (%, negative = inhibition) at 10uM” value falls from 13.2% to 6.32%.

Compared with `COC(=O)C1C(c2ccccc2)C(C(=O)OCc2ccco2)C1c1ccccc1` (stereo not drawn), `CCOCCOCCC(C(=O)OCC)P(=O)(c1ccccc1)c1ccccc1` (stereo not drawn) is lower in “hERG current change (%, negative = inhibition) at 10uM” value: 5.91% for the first, -13.8% for the second.

Compared with `CCOc1ccc(C2C(C(=O)c3cccs3)=C(O)C(=O)N2CCCn2ccnc2)cc1` (stereo not drawn), `C/C(=N\N=C(/N)SC1CC(=O)N(c2ccc(Br)cc2)C1=O)c1cccs1` (stereo not drawn) is lower in “hERG current change (%, negative = inhibition) at 10uM” value: -1.65% for the first, -27.9% for the second.

Going from `CCOC(=O)c1cnn(-c2sc(C(=O)OCC)c(C)c2C(=O)OCC)c1N` to `CCOC(=O)C1=C(COC(=O)c2cccc(N(C)C)c2)NC(=O)NC1C` (stereo not drawn), the “hERG current change (%, negative = inhibition) at 10uM” value falls from 16.4% to 2.49%.

Going from `O=C(c1ccco1)N1CCN(C(c2ccc(Cl)cc2)c2nnnn2CC2CCCO2)CC1` (stereo not drawn) to `COCCn1c(Cc2ccccc2)nnc1SCC(=O)N1CCOCC1`, the “hERG current change (%, negative = inhibition) at 10uM” value rises from -22.1% to 9.96%.

First: O=C(COc1ccc(Cl)cc1Cl)NC1CCSC1=O (stereo not drawn)
Second: Clc1cccc(COn2c(-c3ccc(Cl)cc3Cl)nc3ncccc32)c1
The “hERG current change (%, negative = inhibition) at 10uM” value of the first is higher: -7.02% for the first, -8.79% for the second.

Going from `CCN(C(=O)COC(=O)/C=C/c1ccc(O)c(OC)c1)C1CCS(=O)(=O)C1` (stereo not drawn) to `CC(=O)N1CCOc2ccc(S(=O)(=O)NCC3CCC(C(=O)Nc4ccc(C)cn4)CC3)cc21` (stereo not drawn), the “hERG current change (%, negative = inhibition) at 10uM” value rises from -3.88% to 8.8%.

First: CCN(CC)C(=O)CNc1ccc(C(F)(F)F)cc1[N+](=O)[O-]
Second: CCc1ccccc1NC(=O)N[C@@H](C)C(=O)O
The “hERG current change (%, negative = inhibition) at 10uM” value of the first is lower: -24.6% for the first, 0.395% for the second.

Compared with `CCOc1cc(C(c2c(C)[nH][nH]c2=O)c2c(C)[nH][nH]c2=O)cc(Cl)c1O`, `CCCCn1c(N)c(N(CCOC)C(=O)c2ccc(C)o2)c(=O)[nH]c1=O` is lower in “hERG current change (%, negative = inhibition) at 10uM” value: 14.1% for the first, -0.775% for the second.

Compared with `CN(/N=C/c1cccnc1)c1cnn(-c2ccc(F)c(Cl)c2)c(=O)c1Cl`, `Cc1cc(N=Cc2c(O)ccc3cc(Br)ccc23)no1` is lower in “hERG current change (%, negative = inhibition) at 10uM” value: -1.43% for the first, -3.44% for the second.

First: O=C(Nc1ccc(Oc2ccc(NC(=O)Nc3ccc([N+](=O)[O-])cc3)cc2)cc1)Nc1ccc([N+](=O)[O-])cc1
Second: COc1cc(C(=O)NC(CCSC)C(=O)OCc2cc([N+](=O)[O-])cc3c2OCOC3)cc(OC)c1OC (stereo not drawn)
The “hERG current change (%, negative = inhibition) at 10uM” value of the first is higher: 20.3% for the first, 3.17% for the second.

First: C/C(=N\NC(=O)C(C)Sc1ccccc1)C(C)(C)C (stereo not drawn)
Second: Cc1ccc(C)c(NC(=S)NCCN(C2CCCCC2)C2CCCC2)c1
The “hERG current change (%, negative = inhibition) at 10uM” value of the first is higher: -0.719% for the first, -68.5% for the second.

With `CCc1nc2cc3sc(CC)nc3cc2s1` the “hERG current change (%, negative = inhibition) at 10uM” value was 8.23%.
